Test results taken from paper PMC4336329 (PLoS ONE, 2015).
Hit rate of the full screen: of about 310,000 compounds, about 2,200 (0.71%) showed an effect of 50% or more. Effects have a minus sign here. This is one part of the list.

molecular target: human ether-à-go-go-related gene (hERG) potassium channel (human, UniProt Q12809); assay: primary screen, population patch clamp on CHO cells stably expressing hERG
Sequence (Q12809 whole entry, looked up): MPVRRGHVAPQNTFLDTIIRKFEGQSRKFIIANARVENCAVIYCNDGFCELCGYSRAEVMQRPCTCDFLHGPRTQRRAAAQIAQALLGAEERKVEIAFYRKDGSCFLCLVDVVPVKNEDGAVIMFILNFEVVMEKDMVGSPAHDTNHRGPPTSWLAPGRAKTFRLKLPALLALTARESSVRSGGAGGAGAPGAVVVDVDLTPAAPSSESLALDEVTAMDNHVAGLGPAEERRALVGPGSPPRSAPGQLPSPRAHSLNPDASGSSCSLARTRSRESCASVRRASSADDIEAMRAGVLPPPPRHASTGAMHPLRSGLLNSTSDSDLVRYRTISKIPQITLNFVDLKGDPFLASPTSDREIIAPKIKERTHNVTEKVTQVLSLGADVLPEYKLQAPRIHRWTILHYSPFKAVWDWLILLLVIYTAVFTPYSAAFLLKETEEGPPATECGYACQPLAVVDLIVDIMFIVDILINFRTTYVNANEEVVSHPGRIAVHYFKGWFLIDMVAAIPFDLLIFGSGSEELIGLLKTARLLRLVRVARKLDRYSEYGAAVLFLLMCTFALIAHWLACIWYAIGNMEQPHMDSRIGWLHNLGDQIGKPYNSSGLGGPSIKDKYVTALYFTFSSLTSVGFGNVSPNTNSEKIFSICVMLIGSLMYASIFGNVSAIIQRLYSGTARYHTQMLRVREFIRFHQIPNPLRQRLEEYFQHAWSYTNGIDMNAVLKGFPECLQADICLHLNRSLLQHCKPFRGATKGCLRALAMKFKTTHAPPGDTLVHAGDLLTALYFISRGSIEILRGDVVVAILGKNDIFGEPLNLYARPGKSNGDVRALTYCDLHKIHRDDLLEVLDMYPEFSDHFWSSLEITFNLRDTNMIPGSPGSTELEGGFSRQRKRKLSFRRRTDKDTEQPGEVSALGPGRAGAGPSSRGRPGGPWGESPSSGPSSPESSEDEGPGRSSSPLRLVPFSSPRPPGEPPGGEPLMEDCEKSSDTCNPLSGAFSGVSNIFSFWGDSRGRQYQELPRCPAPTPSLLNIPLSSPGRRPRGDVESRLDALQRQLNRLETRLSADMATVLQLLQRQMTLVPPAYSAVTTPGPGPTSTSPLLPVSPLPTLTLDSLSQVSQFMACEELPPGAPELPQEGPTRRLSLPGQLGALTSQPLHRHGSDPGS

Structure (SMILES)	hERG current change (%, negative = inhibition) at 1uM [%]
COc1cccc(CN2CCN(C(=O)c3ccc(-c4ccccc4)cc3)CC2)c1	4.67
CCOC(=O)Cn1cc(C(=O)C(C)(C)C)c2ccccc21	7.26
COc1ccc(NC(=O)Cn2nc3n(c2=S)CCC3)cc1	12.3
COc1cccc(C(=O)COc2ccccc2-c2ccccc2)c1	2.12
O=C1Nc2cc(C(=O)NCCCN3CCCC3)ccc2S/C1=C/c1ccccc1F	-31
c1cc(-n2cnnn2)ccc1NC1=NCCC1	15.4
Cc1n[nH]c(C)c1S(=O)(=O)N1CCCC(C(=O)NCc2cccs2)C1 (stereo not drawn)	6.14
O=C(NCC(=O)N1CCCCC1)c1ccc(Br)o1	11.7
Cc1cc(C)cc(NC(=O)c2cc3c(=O)n4ccccc4nc3s2)c1	8.07
COc1cccc(-c2csc(N3CCN(C(=S)Nc4cccc(Cl)c4)CC3)n2)c1	10.6
Nc1c(-c2ccc(Cl)cc2)cnc2ncnn12	1.49
COc1ccc(NC(=O)C2CCCN(c3c4c(nc5ncnn35)CCC4)C2)cc1OC (stereo not drawn)	0.336
Cc1c(NC(=O)c2coc(=O)c(Br)c2)c(=O)n(-c2ccccc2)n1C	3.64
Cc1cccc(-c2cc(C(=O)Nc3c(C)n(C)n(-c4ccccc4)c3=O)c3ccccc3n2)c1	9.94
COc1ccc(CC(=O)NNS(=O)(=O)c2ccccc2)cc1OC	10.5
COc1ccc(CCN(C)C/C=C/c2ccccc2[N+](=O)[O-])cc1OC	-54.3
COc1ccc(CCNC(=O)c2oc3ccc(OC)cc3c2C)cc1	6.61
CCCCN1C(=O)/C(=C2\SC(N3CCOCC3)=NC2=O)c2ccccc21	14.4
C(=Nc1ccc(Nc2ccccc2)cc1)c1ccc2ccccc2c1	14.6
COc1ccccc1OCCNC(=O)c1ccc(C)o1	8.63
O=C(O)c1ccc(Sc2nnc3ccccn23)c([N+](=O)[O-])c1	10.9
O=C(Cc1ccc(Br)cc1)N(Cc1ccccc1)c1ccccn1	4.16
FC(F)Oc1ccc(/C=N/c2c(-c3ccc(OC(F)F)cc3)nc3n2CCS3)cc1	20.4

Structure (SMILES)	hERG current change (%, negative = inhibition) at 1uM [%]
O=S(=O)(c1ccc(SCCO)nc1)N1CCCC1	8.34
O=C(NC1CCCCCC1)c1ccc(S(=O)(=O)NCc2ccco2)cc1	4.82
COC(=O)/C=C/c1ccsc1NC(C)=O	11
Cc1ccsc1C(=O)NNC(=O)c1cccc(S(=O)(=O)N2CCCC2)c1	7.39
O=[N+]([O-])c1cc(S(=O)(=O)N2CCCC2)ccc1N/N=C/c1ccccn1	25.7
O=C(NC1CCCC1)c1cc(-c2ccccc2O)on1	8.71
CCNC(=S)Nc1sc2c(c1C#N)CCC(C)C2 (stereo not drawn)	6.1
COc1ccc(OC)c(/C=N/NC(=O)c2cc3c(OC)c(OC)ccc3[nH]2)c1	2.67
CN(C)S(=O)(=O)c1cccc(NC(=O)COC(=O)CCc2nc3ccccc3s2)c1	0.74
COc1ccc(Nc2nc(-c3cccs3)nc3ccccc23)cc1	4.05
CCCc1cc2c(=O)c(-c3ccc4c(c3)OCCO4)coc2cc1OC(=O)c1ccco1	6.79
CC1CC(=O)N(CC(=O)Nc2ccc3c(c2)OCCO3)c2ccccc2S1 (stereo not drawn)	-4.25
COC(=O)[C@@]1(Cc2ccccc2)[C@@H]2C(=CC(=O)[C@H]2CC(=O)C(=O)N(C)C)CN1C(=O)c1ccccc1	0.699
COCCNC(=O)C(NC(=O)C1CCCCC1)C12CC3CC(CC(C3)C1)C2 (stereo not drawn)	8.5
CC(=O)O[C@@]12CO[C@@H]1C[C@H](O)[C@@]1(C)C(=O)[C@H](O)C3=C(C)[C@@H](O)C[C@@](O)([C@@H](OC(=O)c4ccccc4)C12)C3(C)C (stereo partly drawn)	9.56
CC(C)C[C@H](NC(=O)OC(C)(C)C)c1nnc(SCc2cccc(F)c2)o1	0.227
Cc1cc(=O)[nH]c(Nc2cccc(Cl)c2C)n1	12
CCN1C(=O)c2ccccc2S(=O)(=O)c2ccc(C(=O)NCc3cccnc3)cc21	9.86
COc1ccccc1-c1nnc2n1N=C(C)CS2	6.03
COc1ccc(N2CCN(C(=O)COC(=O)c3oc4ccc(OC)cc4c3C)CC2)cc1	6.14
CC(C)(C)NC(=O)NC(=O)COC(=O)CCC1CCCCC1	12.8
Cc1cc2cc(C(c3nnnn3Cc3ccco3)N3CCc4ccccc4C3)c(=O)[nH]c2cc1C (stereo not drawn)	-0.127
